# The list shows a part of the results.
# Tested on: HSkMC (human skeletal muscle cells)
# Assay: cytotoxicity call (relative viability < 0.9)
# Conditions: 10 µM
row,Compound,cytotoxicity call
1,C[C@H]1CN([C@@H](C)CO)C(=O)c2cc(Br)cnc2O[C@H]1CN(C)S(=O)(=O)c1cccs1,inactive
2,NCc1cccc(-n2cccn2)c1,inactive
3,C[C@H](CO)N1C[C@H](C)[C@H](CN(C)S(=O)(=O)c2cccs2)Oc2ncc(Br)cc2C1=O,inactive
4,CO[C@@H]1CN(C)C(=O)c2cc(NS(=O)(=O)CC(F)(F)F)ccc2OC[C@@H](C)N(Cc2nccs2)C[C@@H]1C,inactive
5,O=C(NC[C@H]1CCCO1)c1ccc[nH]1,inactive
6,C[C@@H]1CN([C@@H](C)CO)C(=O)c2cc(NC(=O)C3CC3)ccc2O[C@@H]1CN(C)S(=O)(=O)c1ccccc1,inactive
7,COC1(NC(=O)CSCC#N)C(=O)N2C(C(=O)[O-])=C(CSc3nnnn3C)CSC21.[Na+] (stereo not given),inactive
8,COc1cccc(S(=O)(=O)N(C)C[C@@H]2Oc3ncc(C#CC(C)C)cc3C(=O)N([C@H](C)CO)C[C@H]2C)c1,inactive
9,c1ccc(-c2cc(-c3ccccc3)n(-c3ccccc3)n2)cc1,inactive
10,C[C@H](CO)N1C[C@H](C)[C@H](CN(C)Cc2ccccn2)Oc2ncc(C#Cc3ccc(F)cc3)cc2C1=O,inactive
11,C[C@@H]1CN([C@H](C)CO)C(=O)c2cc(NC(=O)C3CCCCC3)ccc2O[C@H]1CN(C)Cc1ccc(Oc2ccccc2)cc1,inactive
12,O=C(O)c1n[nH]c2c1C[C@H]1C[C@@H]21,inactive
13,CNC[C@@H]1OCCCC[C@H](C)Oc2ccc(NC(=O)Nc3cccc4ccccc34)cc2C(=O)N([C@H](C)CO)C[C@@H]1C,inactive
14,C[C@H](CO)N1C[C@H](C)[C@@H](CN(C)C(=O)Nc2cccc3ccccc23)Oc2ccc(NC(=O)CCC(F)(F)F)cc2CC1=O,inactive
15,C[C@@H]1O[C@@H](O[C@H]2[C@H](OC(=O)[C@]34CCC(C)(C)C[C@H]3C3=CC[C@H]5[C@@]6(C)CC[C@H](O[C@@H]7O[C@H](CO)[C@@H](O)[C@H](O)[C@H]7O)C(C)(C)[C@@H]6CC[C@@]5(C)[C@]3(C)C[C@H]4O)OC[C@H](O)[C@@H]2O)[C@H](O)[C@H](O[C@@H]2OC[C@H](O)[C@H](O)[C@H]2O)[C@H]1O[C@@H]1OC[C@@H](O)[C@H](O[C@@H]2OC[C@H](O)[C@H](O)[C@H]2O)[C@H]1O,inactive
16,COc1ccc(CN(C)C[C@@H]2Oc3c(NC(=O)c4ccc(-c5nccs5)cc4)cccc3C(=O)N([C@@H](C)CO)C[C@H]2C)cc1,inactive
17,Cc1noc(C)c1S(=O)(=O)N(C)C[C@@H]1Oc2ccc(NC(=O)CCC(F)(F)F)cc2CC(=O)N([C@@H](C)CO)C[C@H]1C,inactive
18,C[C@@H]1CN([C@H](C)CO)C(=O)c2cc(NS(=O)(=O)c3ccc(Cl)cc3)ccc2O[C@@H](C)CCCCO[C@@H]1CN(C)CC1CCCCC1,inactive
19,C[C@H]1CCCCO[C@@H](CN(C)Cc2ccncc2)[C@@H](C)CN([C@@H](C)CO)C(=O)c2cc(NC(=O)Nc3ccc(C(F)(F)F)cc3)ccc2O1,inactive
20,O=C(CN1CCOCC1)N[C@@H]1CC[C@H](CCn2cc(C3CC3)nn2)O[C@H]1CO,inactive

row,Compound,cytotoxicity call
1,C[C@@H]1CN([C@H](C)CO)C(=O)c2cccc(NC(=O)Nc3ccc(F)cc3)c2O[C@@H]1CN(C)Cc1ccc(-c2ccccc2)cc1,inactive
2,CCCNC(=O)N1C[C@]2(CN(C2)S(=O)(=O)c2ccc(cc2)OC)c2c(n(c3cc(ccc23)OC)C)[C@H]1CO,inactive
3,Cc1noc(C)c1NC(=O)Nc1ccc2c(c1)C(=O)N([C@@H](C)CO)C[C@H](C)[C@@H](CN(C)S(=O)(=O)c1ccccc1)O2,inactive
4,Cc1noc(C)c1NC(=O)N(C)C[C@H]1Oc2ccc(NC(=O)CCN3CCOCC3)cc2CC(=O)N([C@H](C)CO)C[C@H]1C,inactive
5,C[C@H](CO)N1C[C@H](C)[C@H](CN(C)Cc2ccc3c(c2)OCO3)OCCCC[C@H](C)Oc2ccc(NS(=O)(=O)c3ccc(F)cc3)cc2C1=O,inactive
6,C=C[C@H](CO[Si](CC)(CC)CC)N(Cc1ccc(OC(C)=O)c(OC)c1)S(=O)(=O)c1ccc(Br)cc1,inactive
7,C[C@@H]1CCCCO[C@@H](CN(C)Cc2ccc(C(F)(F)F)cc2)[C@@H](C)CN([C@@H](C)CO)C(=O)c2cc(NC(=O)Nc3cccc4ccccc34)ccc2O1,inactive
8,COc1ccc(CN(C)C[C@@H]2Oc3c(NC(=O)Nc4cccc5ccccc45)cccc3C(=O)N([C@H](C)CO)C[C@@H]2C)cc1,inactive
9,O=C(C[C@@H]1CC[C@H](NC(=O)C2CC2)[C@@H](CO)O1)NCCCN1CCOCC1,inactive
10,CCCNC(=O)N(C)C[C@H]1Oc2ncc(-c3ccc(C(=O)N(C)C)cc3)cc2C(=O)N([C@@H](C)CO)C[C@H]1C,inactive
11,COc1ccc(S(=O)(=O)N(C)C[C@H]2OCCCC[C@H](C)Oc3ccc(NC(=O)Nc4ccccc4)cc3C(=O)N([C@@H](C)CO)C[C@H]2C)cc1,inactive
12,CO[C@@H](CN(C)S(=O)(=O)c1ccc(Cl)cc1)[C@H](C)CN([C@H](C)CO)S(=O)(=O)c1cccc(Cl)c1,inactive
13,C[C@H](CO)N1C[C@H](C)[C@@H](CN(C)Cc2ccccc2)Oc2ccc(NC(=O)CCCCCC(=O)Nc3ccccc3N)cc2C1=O,inactive
14,O=C(NCC1CC1)[C@H]1[C@H](CO)[C@H]2Cn3c(cccc3=O)[C@@H]1N2C(=O)c1cccnc1,inactive
15,NC(=O)c1cc(N)ccc1F,inactive
16,CCS(=O)(=O)Nc1ccc2c(c1)C(=O)N(C)C[C@H](OC)[C@@H](C)CN(Cc1ccccn1)[C@@H](C)CO2,inactive
17,C[C@@H]1CN([C@@H](C)CO)C(=O)c2cccc(NC(=O)c3nc4ccccc4s3)c2O[C@@H]1CN(C)S(C)(=O)=O,inactive
18,C[C@@H]1CCCCO[C@H](CN(C)Cc2ccccc2)[C@H](C)CN([C@@H](C)CO)C(=O)c2cc(NC(=O)Cc3ccccc3)ccc2O1,inactive
19,Cc1noc(C)c1NC(=O)Nc1cccc2c1O[C@H](CN(C)C(=O)NC(C)C)[C@@H](C)CN([C@H](C)CO)C2=O,inactive
20,C[C@H](NC(=O)N(C)C[C@H]1OCc2ccccc2-c2c(n(C)c3ccccc23)C(=O)N([C@@H](C)CO)C[C@H]1C)c1ccccc1,inactive

# — the antibiotic and cytotoxicity screens of Wong et al. (2023)
